Test results taken from PubChem BioAssay AID686979 (National Center for Advancing Translational Sciences (NCATS), 2013).
Among all 420,000 compounds or so, about 50,000 (12%) were called active. The inconclusive results got no clear call from the source; some entries with a clear call stand among them for comparison. The call rests on the fitted dose curve; in most records, active means well fitted inhibition curve with a large enough effect; inconclusive means small, poorly fitted or top-dose-only effect; inactive means flat fitted curve, though single readings scatter. Potencies of inconclusive entries are left out as doubtful fits.

experiment: qHTS for Inhibitors of human tyrosyl-DNA phosphodiesterase 1 (TDP1): qHTS in cells in presence of CPT; conditions: chicken DT40 Tdp1-/-;hTDP1 cells + 20 nM CPT, ATP luminescence, 48 h; activity change, negative = growth inhibition: at 46.2 µM (top of the series); further: nearly all actives have a fitted effect of over 55% in size
Procedure, shortened: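 Chicken DT40 Tdp1-/- cells stably complemented with human TDP1 were seeded at 400 cells/well in medium containing 20 nM camptothecin, exposed to pin-transferred compounds, and grown at 37 °C for at least 48 hr. Viability was read as ATP luminescence.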
On the % scale 0 is the no-effect control and ±100 the full control effect; potency means the concentration at half of the fitted maximal effect; tags describe the fitted curve by direction and shape.

Compound | Potency | activity change, negative = growth inhibition
CCOC(=O)[C@]12CCC=C1N(CCC1=CCCCC1)C(=O)[C@H](CC(=O)N1CCSCC1)C2 | active: 18.4 µM | 
CC(C)(C)c1ccccc1NC(=S)NC1CCCCC1 | inconclusive [inhibitor, single point] | 
CCN(c1ccccc1)S(=O)(=O)c1ccc(Oc2ccc(C(C)=O)cc2OC)nc1 | inconclusive [inhibitor, single point] | 
CC(=O)c1cccc(NS(=O)(=O)N2CCCCC2)c1 | inconclusive [inhibitor, single point] | 
S=C(NCCCN1CCOCC1)N1CCN(c2ccccc2)CC1 | inactive | 
Cn1c(=O)c2c(-c3cccc(Br)c3)n(C(C)(C)CO)cc2n(C)c1=O | inconclusive [inhibitor, partial curve, poor fit] | 
NNC(=O)c1cc2cc3ccccc3nc2s1 | active: 5.17 µM | 
COc1cccc2c1cc1c(=O)n(CC(=O)N3CCN(c4ccc(Cl)cc4)CC3)nc(C)n12 | inactive | 
CCc1cc2c(=O)c(-c3ccc4c(c3)OCCO4)coc2cc1OC(=O)c1ccco1 |  | inconclusive: -31.1% [inhibitor]
CN1CCN(/N=C/c2ccc(-c3ccc([N+](=O)[O-])cc3Cl)o2)CC1 | inactive | 
CCCn1c(SCC(=O)N2CCc3ccccc32)nnc1-c1ccco1 | inconclusive [inhibitor, single point] | 
CCCCn1c(=O)n(C)c(=O)c2c(C(F)(F)F)cc(-c3ccncc3)nc21 | active: 17.8 µM | 
COc1ccccc1NC(=O)Cn1c(SCC(=O)N(C)c2ccccc2)nc2ccccc21 | inconclusive [inhibitor, partial curve, poor fit] | 
Cc1cc2nc(-c3ccc(OCc4ccccc4Cl)cc3)cc(C(F)(F)F)n2n1 | inconclusive [inhibitor, single point] | 
O=C1NC[C@@H](c2ccccc2)OC(=O)[C@H](Cc2ccc(F)cc2)C/C=C\C[C@H]1CC(=O)N(CCO)Cc1ccccc1 | active: 20.6 µM | 
O=C1N(Cc2ccccc2)c2ccc(Cl)cc2C1(O)c1c[nH]c2ccccc12 (stereo unspecified) | active: 23.1 µM | 
COC(=O)CN1C(=S)N(Cc2ccccc2)C(=O)C1CC(=O)Nc1ccc(Br)cc1 (stereo unspecified) | active: 16.4 µM | 
COP(=O)(OC)C(Nc1cc(Cl)cc(Cl)c1)c1cccc(O)c1 (stereo unspecified) |  | inconclusive: -31% [inhibitor]
Cc1cc(C)nc(Nc2ccc(Cl)cc2C)n1 | inactive | 
O=C(c1ncn(Cc2ccccc2)c1C(=O)N1CCc2ccccc2C1)N1CCc2ccccc2C1 | inconclusive [inhibitor, single point] | 
Cc1cc(C)cc(NC(=O)Cn2cc(S(=O)(=O)NC(C)(C)C)c(S(=O)(=O)NC(C)(C)C)c2)c1 | inconclusive [inhibitor, single point] | 
O=C(NCCn1cc(SCc2ccccc2Cl)c2ccccc21)c1cccs1 | active: 23.1 µM | 
O=C(Nc1ccccc1Cl)C1CCN(c2nc3ccccc3nc2C(F)(F)F)CC1 | inconclusive [inhibitor, single point] | 

Compound | Potency | activity change, negative = growth inhibition
COC(=O)c1ccccc1NC=C1C(=O)OC2(CCCCC2)OC1=O | inactive | 
CC(C)OC(=O)Nc1ccc2nc(-c3cscn3)[nH]c2c1 | active: 0.841 µM | 
CC(C)=CCc1c(O)cc2oc3c(CC=C(C)C)c(O)c(O)c(CC=C(C)C)c3c(=O)c2c1O | inconclusive [inhibitor, single point] | 
CCCN1C(=O)c2cc(C(=O)Nc3ccc(OC)cc3OC)ccc2C1Nc1ccc(OC)cc1OC (stereo unspecified) | active: 23.1 µM | 
CCOC(=O)N1CCN(C(=O)CSc2ccc(-c3cccc(OC)c3)nn2)CC1 | inconclusive [inhibitor, partial curve] | 
COc1ccc(NC(=S)NCc2cccnc2)cc1 | inactive | 
COCCN(C(=O)COC(=O)CSc1ccccc1)c1c(N)n(Cc2ccccc2)c(=O)[nH]c1=O | inconclusive [inhibitor, full curve, poor fit] | 
COc1ccc(C(=O)COC(=O)CNC(=O)c2cc(OC)cc(OC)c2)cc1 | inactive | 
Nc1ncnc2c1CN(Cc1ccccc1)CC2 | inactive | 
Cc1ccc(S(=O)(=O)Nc2cccc3ncccc23)s1 | active: 0.92 µM | 
N#Cc1nc(-c2ccc(Cl)cc2)oc1NCc1ccco1 | inconclusive [inhibitor, single point] | 
Nc1nc2ccccc2n1C(=O)c1ccco1 | inconclusive [inhibitor, single point] | 
CC(Sc1nc2c([nH]c3ccccc32)c(=O)n1C)c1ccccc1 (stereo unspecified) | active: 11.6 µM | 
Cc1cccnc1NC(=S)NCCc1ccccc1 | inconclusive [inhibitor, single point] | 
Cc1ccc(C)c(N2CCN(C(=O)CCc3nc(-c4ccccc4Cl)no3)CC2)c1 | inconclusive [inhibitor, single point] | 
CC1CCCN(CCCNC(=O)c2cc3c(s2)-c2ccccc2OC3)C1 (stereo unspecified) | inconclusive [inhibitor, single point] | 
O=C(Nc1ccc(F)c(F)c1)c1cc(S(=O)(=O)NC2CCCCCC2)ccc1F | active: 20.6 µM | 
COc1ccc(CNC(=O)CN(C(=O)c2cc3sccc3n2C)C2CCCC2)cc1 | inconclusive [inhibitor, single point] | 
CCOC(=O)c1cc2c(=O)n3ccccc3nc2n(C(C)C)c1=NC(=O)c1cc2ccccc2o1 | inconclusive [inhibitor, partial curve] | 
COc1ccc(CNC(=O)CN2C(=O)COc3ccc(S(=O)(=O)Nc4ccccc4)cc32)cc1 | inconclusive [inhibitor, single point] | 
Cc1ccc(NC(=O)Nc2cnccn2)cc1 | inactive | 
COc1cc(-c2cc(NC(C)=O)c3ncc(-c4ccccc4)n3c2)cc(OC)c1OC | inconclusive [inhibitor, single point] | 
C(=N\Nc1nc2ccccc2[nH]1)/C1CCCCC1 | active: 18.4 µM | 
